Data taken from the antibiotic and cytotoxicity screens of Wong et al. (2023).
The other results are listed elsewhere or left out.

Assays:
[1] = system: HSkMC (human skeletal muscle cells); assay: cytotoxicity call (relative viability < 0.9); conditions: 10 µM
[2] = system: HepG2; assay: cytotoxicity call (relative viability < 0.9); conditions: 10 µM
[3] = system: S. aureus RN4220; assay: growth inhibition call (relative growth <= 0.2); conditions: 50 µM

Compound	cytotoxicity call [1]	cytotoxicity call [2]	growth inhibition call [3]
C[C@H](CO)N1C[C@H](C)[C@H](CN(C)Cc2ccc(C(F)(F)F)cc2)OCCCC[C@H](C)Oc2ccc(NS(=O)(=O)c3cn(C)cn3)cc2C1=O	inactive	inactive	inactive
COCC(=O)N1CC[C@]2(CC1)CN([C@H](CO)c1[nH]c3cc(ccc3c12)OC)S(=O)(=O)C	inactive	inactive	inactive
COCCOC(=O)N1C(=O)[C@@]2(c3cc(C#Cc4ccc(OC)cc4)ccc31)[C@H](c1ccc(O)cc1)N1[C@H](c3ccccc3)[C@H](c3ccccc3)OC(=O)[C@H]1[C@@H]2C(=O)NC[C@H](O)c1ccccc1	inactive	inactive	inactive
Cc1ccc(S(=O)(=O)N(C)C[C@H]2OCCCC[C@H](C)Oc3ccc(NC(=O)C4CCCCC4)cc3C(=O)N([C@@H](C)CO)C[C@@H]2C)cc1	inactive	active	inactive
O=C(O[C@@H]1O[C@@H]2COC(=O)c3cc(O)c(O)c(O)c3-c3c(cc(O)c(O)c3O)C(=O)O[C@H]2[C@H](OC(=O)c2cc(O)c(O)c(O)c2)[C@H]1OC(=O)c1cc(O)c(O)c(O)c1)c1cc(O)c(O)c(O)c1	active	active	inactive
Cc1cn(Cc2ccccc2)c(=O)[nH]c1=O	inactive	inactive	inactive
O=C(c1cccnc1)N1C[C@@H]2[C@H](c3ccccc31)[C@@H](CO)N2C(=O)CN1CCOCC1	inactive	inactive	inactive
O=C(NCC(F)(F)F)C1CCNCC1	inactive	inactive	inactive
NCC1OC(OC2C(N)CC(N)C(O)C2OC2OC(CO)C(O)C2O)C(N)C(O)C1O.O=S(=O)(O)O (centres undefined)	inactive	inactive	inactive
C[C@@H]1CN([C@H](C)CO)C(=O)c2cc(NC(=O)C3CCCCC3)ccc2O[C@H]1CN(C)S(=O)(=O)c1cn(C)cn1	inactive	inactive	inactive
O=C(NCc1ccc2c(c1)OCO2)[C@@H]1[C@@H](CO)[C@@H]2Cn3c(cccc3=O)[C@H]1N2Cc1cncnc1	inactive	inactive	inactive
COCC#Cc1ccc2c(c1)O[C@H](CN(C)Cc1ccc(F)cc1)[C@H](C)CN([C@H](C)CO)S2(=O)=O	inactive	inactive	inactive
COc1cccc(S(=O)(=O)N2C[C@H](O)COC[C@@H]3O[C@H](CC(=O)N4CCN(c5ccccc5)CC4)CC[C@H]32)c1	inactive	inactive	inactive
COc1ccc(S(=O)(=O)Nc2cccc3c2O[C@@H](CN(C)S(=O)(=O)c2ccc(F)cc2)[C@H](C)CN([C@H](C)CO)C3=O)cc1	inactive	inactive	inactive
COc1ccc(S(=O)(=O)N(C)C[C@H]2Oc3ccc(NS(=O)(=O)c4cccs4)cc3C(=O)N([C@@H](C)CO)C[C@H]2C)cc1	inactive	inactive	inactive
C[C@@H]1CN([C@@H](C)CO)C(=O)CCCn2nncc2CO[C@@H]1CN(C)C(=O)Nc1ccnc(N2CCOCC2)c1	inactive	inactive	inactive
Cc1ccc(S(=O)(=O)Nc2ccc3c(c2)C(=O)N([C@@H](C)CO)C[C@@H](C)[C@H](CN(C)CC2CCCCC2)OCCCC[C@@H](C)O3)cc1	inactive	inactive	inactive
Cc1noc(C)c1S(=O)(=O)Nc1ccc2c(c1)C(=O)N([C@H](C)CO)C[C@H](C)[C@@H](CN(C)S(=O)(=O)c1cn(C)cn1)OCCCC[C@@H](C)O2	inactive	inactive	inactive
C[C@@H]1CN([C@H](C)CO)C(=O)c2cc(NC(=O)Nc3ccc(C(F)(F)F)cc3)ccc2O[C@H]1CN(C)Cc1ccc(C(F)(F)F)cc1	active	active	inactive
O=C(O)c1ccc[n+]([O-])c1	inactive	inactive	inactive
COc1ccc(CNC(=O)N(C)C[C@@H]2OCc3ccccc3-c3c(n(C)c4ccccc34)C(=O)N([C@@H](C)CO)C[C@H]2C)cc1	inactive	inactive	inactive
COC(=O)C[C@@H]1CC[C@@H]2[C@@H](COc3ccc(NS(=O)(=O)c4ccccc4Cl)cc3C(=O)N2C)O1	inactive	inactive	inactive
O=C(C[C@@H]1CC[C@@H]2[C@H](COC[C@@H](O)CN2C(=O)c2cccnc2)O1)NCc1ccc(-c2ccccc2)cc1	inactive	inactive	inactive
C[C@H](CO)N1C[C@H](C)[C@@H](CN(C)C(=O)Nc2ccc(F)cc2)Oc2ccc(NS(C)(=O)=O)cc2C1=O	inactive	inactive	inactive
CN1CCN(C(=O)C[C@@H]2CC[C@@H]3[C@H](COC[C@@H](O)CN3CC3CCCC3)O2)CC1	inactive	inactive	inactive
O=C(N[C@@H]1CC=CC[C@H](CC(=O)N(CCO)Cc2ccccc2)C(=O)NC[C@H](c2ccccc2)OC1=O)OCC1c2ccccc2-c2ccccc21	inactive	inactive	inactive
CO[C@@H]1CN(C)C(=O)c2cc(NS(=O)(=O)c3ccccc3)ccc2OC[C@@H](C)N(C(=O)NC(C)C)C[C@@H]1C	inactive	inactive	inactive

Compound	cytotoxicity call [1]	cytotoxicity call [2]	growth inhibition call [3]
CN1C(=O)c2cc(NC(=O)c3cnccn3)ccc2OC[C@H]2O[C@H](CC(=O)N[C@H]3CCN(Cc4ccccc4)C3)CC[C@@H]21	inactive	inactive	inactive
C[C@H](CO)N1C[C@H](C)[C@H](CN(C)C(=O)CCCN(C)C)OCCCC[C@H](C)Oc2ccc(NS(C)(=O)=O)cc2C1=O	inactive	inactive	inactive
CC(C)NC(=O)NCC[C@@H]1CC[C@H](NC(=O)CN(C)C)[C@@H](CO)O1	inactive	inactive	inactive
Cc1noc(C)c1S(=O)(=O)N(C)C[C@H]1Oc2ccc(NS(C)(=O)=O)cc2CC(=O)N([C@H](C)CO)C[C@H]1C	inactive	inactive	inactive
Cl.N=C(N)NC(=O)c1nc(Cl)c(N)nc1N	inactive	inactive	inactive
COc1ccc(S(=O)(=O)Nc2ccc3c(c2)CC(=O)N([C@@H](C)CO)C[C@H](C)[C@@H](CN(C)S(=O)(=O)c2ccc(C)cc2)O3)cc1	inactive	inactive	inactive
CO[C@H]1CN(C)C(=O)c2cc(NC(=O)Nc3ccc(Cl)cc3)ccc2OC[C@@H](C)N(C(=O)Nc2c(C)noc2C)C[C@@H]1C	inactive	inactive	inactive
COc1cccc(NC(=O)N(C)C[C@H]2Oc3ncc(C#Cc4cccnc4)cc3C(=O)N([C@H](C)CO)C[C@H]2C)c1	inactive	inactive	inactive
C[C@H]1CN([C@@H](C)CO)S(=O)(=O)c2ccc(C#Cc3ccncc3)cc2O[C@H]1CN(C)S(=O)(=O)c1ccc(F)cc1	inactive	active	inactive
C[C@@H](O)[C@@H](O)[C@@H](O)C/C=N/NC(=O)CCCCC(=O)NO	inactive	inactive	inactive
O=C(C[C@@H]1C=C[C@@H](NS(=O)(=O)c2ccc(F)cc2)[C@@H](CO)O1)NCCN1CCCCC1	inactive	inactive	inactive
Cc1ccc(S[C@]2(C(=O)NCc3ccccc3)CC(=O)N(C3Cc4ccccc4C3)[C@@H]2c2ccc(CO)cc2I)cc1	inactive	inactive	inactive
COc1cccc(C(=O)Nc2ccc3c(c2)C(=O)N(C)[C@@H]2CC[C@@H](CC(=O)NCCCN4CCOCC4)O[C@H]2CO3)c1	inactive	inactive	inactive
CC[C@@H](O)C#CCN1CCN(C)CC1	inactive	inactive	inactive
C[C@@H]1CN([C@H](C)CO)C(=O)c2cc(NC(=O)Cn3cnnn3)ccc2O[C@@H]1CN(C)S(=O)(=O)c1cccs1	inactive	inactive	inactive
CC(C)N1C(=O)[C@@]2(Cc3ccccc31)c1ccccc1C(=O)N(Cc1ccccc1Cl)[C@H]2c1ccc(CO)cc1	inactive	inactive	inactive
COc1ccc2c3c([nH]c2c1)[C@@H](CO)N(C[C@]13CCN(CC1)CC1CCCCC1)C(=O)Nc1cccc(c1)F	active	active	active
C[C@H](CO)N1C[C@H](C)[C@H](CN(C)Cc2ccc3c(c2)OCO3)Oc2ccc(NS(C)(=O)=O)cc2C1=O	inactive	inactive	inactive
COc1ccc(S(=O)(=O)N(C)C[C@H]2Oc3ccc(NS(=O)(=O)c4cn(C)cn4)cc3C(=O)N([C@@H](C)CO)C[C@H]2C)cc1	inactive	inactive	inactive
Cc1cc(C(=O)NN)n(C(C)(C)C)n1	inactive	inactive	inactive
CO[C@H](C(=O)[C@@H](O)[C@@H](C)O)[C@H]1Cc2cc3cc(O[C@H]4C[C@@H](O[C@H]5C[C@@H](O)[C@@H](O)[C@@H](C)O5)[C@@H](O)[C@@H](C)O4)c(C)c(O)c3c(O)c2C(=O)[C@@H]1O[C@H]1C[C@@H](O[C@H]2C[C@@H](O[C@H]3C[C@@](C)(O)[C@@H](O)[C@@H](C)O3)[C@@H](O)[C@@H](C)O2)[C@@H](O)[C@@H](C)O1	inactive	active	inactive
C[C@H](CO)N1C[C@H](C)[C@H](CN(C)C(=O)c2ccccn2)Oc2cc(C#Cc3ccccc3)ccc2S1(=O)=O	inactive	inactive	inactive
C[C@H]1CN([C@@H](C)CO)C(=O)c2cccc(NS(=O)(=O)c3cn(C)cn3)c2O[C@H]1CN(C)C(=O)Nc1ccccc1	inactive	inactive	inactive
C[C@H](CO)N1C[C@H](C)[C@H](CN(C)Cc2ccc(C(F)(F)F)cc2)Oc2c(NC(=O)NC3CCCCC3)cccc2C1=O	inactive	inactive	inactive
C[C@@H]1CCCCO[C@H](CN(C)C(=O)c2ccccc2)[C@H](C)CN([C@H](C)CO)C(=O)c2cc(NS(=O)(=O)c3ccc(Cl)cc3)ccc2O1	inactive	inactive	inactive
C[C@@H]1CN([C@H](C)CO)C(=O)c2cc(NC(=O)CCN3CCOCC3)ccc2O[C@@H]1CN(C)Cc1ccc2c(c1)OCO2	inactive	inactive	inactive
